# Laboratory results reported in PubChem BioAssay AID1476 (National Center for Advancing Translational Sciences (NCATS), 2009).
# Among all 200,000 compounds or so, about 4,500 (2.2%) were called active. The shares of active, inactive and inconclusive entries below differ from those in the screen. Calls come from the whole dose curve; as a rule, active = well fitted inhibition curve with a large enough effect; inconclusive = small, poorly fitted or top-dose-only effect, or effect the other way; inactive = flat fitted curve, though single readings scatter. Where the call is inconclusive, the potency comes from a doubtful curve fit.
# Molecular target: Cruzipain (Trypanosoma cruzi) (UniProt P25779)
# Test: qHTS Assay for Promiscuous and Specific Inhibitors of Cruzain (without detergent); note: nearly all actives have a fitted effect of over 40% in size;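 for max response, negative = inhibition: plate controls were enzyme without inhibitor for no effect and buffer without enzyme for full effect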
# Settings: purified cruzain, Z-FR-AMC fluorescence, no detergent
# Method in brief: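 Purified cruzain at 1.5 nM, pre-incubated 15 min with compound at room temperature in 100 mM sodium acetate pH 5.5, 5 mM DTT, 0.00005% Triton X-100. Reaction started with 2 uM Z-FR-AMC; AMC fluorescence increase over 60 s gives rate.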
# Potency is the fitted concentration of half-maximal effect; tags give direction and shape of the fitted curve.
# UniProt P25779, sequence (P25779 whole entry, looked up): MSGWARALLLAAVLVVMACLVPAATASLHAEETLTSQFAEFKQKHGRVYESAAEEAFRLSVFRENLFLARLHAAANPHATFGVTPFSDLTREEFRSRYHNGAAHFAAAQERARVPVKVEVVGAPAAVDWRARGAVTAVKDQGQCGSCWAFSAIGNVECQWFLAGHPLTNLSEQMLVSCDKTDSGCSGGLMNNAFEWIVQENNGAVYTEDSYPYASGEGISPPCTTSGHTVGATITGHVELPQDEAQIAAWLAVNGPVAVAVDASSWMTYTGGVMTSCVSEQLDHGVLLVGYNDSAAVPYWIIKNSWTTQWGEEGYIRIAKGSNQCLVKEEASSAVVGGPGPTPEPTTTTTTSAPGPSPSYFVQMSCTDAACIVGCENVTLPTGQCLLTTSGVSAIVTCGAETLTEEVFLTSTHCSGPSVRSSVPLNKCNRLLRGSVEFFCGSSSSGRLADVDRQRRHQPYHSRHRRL
Compound,"max response, negative = inhibition",Potency
COc1ccc(CCN2C(=O)CN(C3CCCCCC3)C(=O)C2c2ccc(OC(C)C)c(OC)c2)cc1OC (stereo not given),inactive: -4.76%,
CN(C(=O)c1ccc2c(Cl)c3c(nc2c1)CCC3)c1ccccc1F,,"inconclusive: 31.6 µM [activator, single point]"
Cc1csc2nc(-c3ccc(NS(=O)(=O)c4cc(F)ccc4F)cc3)cn12,,active: 31.6 µM
COc1ccc(/C=N/NC(=O)CN(C2=NS(=O)(=O)c3ccccc32)c2ccccc2)cc1,,"inconclusive: 25.1 µM [activator, single point]"
COc1cc2c(C)nc(C)c(C#N)c2cc1OC,,"inconclusive: 39.8 µM [activator, single point]"
Cc1ccc(S(=O)(=O)N2Cc3ccccc3CC2C(=O)Nc2ccc3c(c2)OCO3)cc1 (stereo not given),,"inconclusive: 39.8 µM [inhibitor, single point]"
CNS(=O)(=O)c1cn(CC(=O)Nc2ccc(OC)cc2OC)cc1S(=O)(=O)NC,inactive: 2.13%,
Cc1cccc(C2=NN(c3ccc(Br)cc3)[C@@H](C(=O)N3CCOC3=O)[C@@H]2c2ccccc2)c1,,active: 17.8 µM
O=C(CO/N=C/c1cccc([N+](=O)[O-])c1)Nc1ccc2ccccc2c1,,"inconclusive: 39.8 µM [inhibitor, single point]"
Cc1[nH]nc(-c2ccc(OCc3cnn(-c4ccccc4)c3)cc2O)c1Oc1ccc(F)cc1,,"inconclusive: 39.8 µM [inhibitor, single point]"
Cc1ccc(CNS(=O)(=O)c2cc3c(cc2Cl)NC(=O)CO3)o1,inactive: -2.33%,
Cc1ccc(S(=O)(=O)c2cn(CC(=O)Nc3cccc(C)c3)c3cc4c(cc3c2=O)OCO4)cc1,,"inconclusive: 25.1 µM [inhibitor, single point]"
COc1cc(/C=N/NC(N)=O)cc(Br)c1OCc1ccccc1C,,active: 20 µM
COc1cc(C(=O)Nc2ccc3nc4n(c(=O)c3c2)CCCCC4)cc(OC)c1OC,,"inconclusive: 31.6 µM [activator, single point]"
N#CCCn1c(=O)cnc2cnc(N3CCNCC3)nc21,inactive: -14.8%,
COc1ccc(S(=O)(=O)N2CCCC2C(=O)Nc2ccc(C(C)=O)cc2)cc1 (stereo not given),inactive: 1.88%,
COc1ccc(C(=O)COC(=O)CCN2C(=O)C3C4CC(C(Br)C4Br)C3C2=O)cc1 (stereo not given),,"inconclusive: 39.8 µM [activator, single point]"
CCN(C(=O)CSc1nc2ccccc2c2nc(CCn3c(C)nc4ccccc43)nn12)c1cccc(C)c1,,"inconclusive: 39.8 µM [activator, single point]"
CCN(CC)S(=O)(=O)c1ccc2c(c1)N(CC(=O)N1CCN(c3cccc(C)c3)C(C)C1)C(=O)CO2 (stereo not given),,"inconclusive: 39.8 µM [activator, single point]"
CC(=O)Nc1cccc(-c2nnc(SCC(=O)n3c4c(c5ccccc53)CCCC4)n2C)c1,,"inconclusive: 31.6 µM [activator, single point]"
COc1cc(C(=O)NC2(C(F)(F)F)C(=O)NC(C)=C2C#N)cc(OC)c1OC (stereo not given),inactive: 0.392%,
COc1cc2c(cc1NC(=O)C(C)OC(=O)/C=C/c1ccc(OC(F)F)cc1)oc1ccccc12 (stereo not given),,active: 31.6 µM

Compound,"max response, negative = inhibition",Potency
Cc1ccc(-n2c(=O)c3c(C)c(C(=O)N(C)C)sc3n(CC(=O)N(C)c3ccccc3)c2=O)cc1C,,"inconclusive: 20 µM [activator, single point]"
COc1cc(-c2nnc(SCc3ccccc3Cl)o2)cc(OC)c1OC,,"inconclusive: 31.6 µM [activator, single point]"
Cc1ccc2cc(C#N)c(SCc3nnc(-c4ccccc4[N+](=O)[O-])o3)nc2c1,,"inconclusive: 39.8 µM [inhibitor, single point]"
O=C(Nc1ccc(N2CCCC2)cc1)C(c1ccccc1)c1ccccc1,,active: 7.94 µM
CCc1cccc(NC(=O)c2cnc(N3CCOCC3)c3ccccc23)c1,,"inconclusive: 39.8 µM [activator, single point]"
CCCCSc1nc2c(cnn2-c2ccc(C)c(C)c2)c(=O)[nH]1,,active: 20 µM
O=S(=O)(Nc1ccc2c(c1)OCCO2)c1ccc2oc3ccccc3c2c1,,"inconclusive: 31.6 µM [inhibitor, single point]"
COc1ccc(NS(=O)(=O)c2cc(NC(=O)c3cccs3)ccc2N2CCCC2)cc1,,"inconclusive: 25.1 µM [inhibitor, single point]"
CCOc1ccc(NC(=O)CSc2ncc(S(=O)(=O)c3ccc(F)c(C)c3)c(=O)[nH]2)cc1,,"inconclusive: 39.8 µM [activator, single point]"
O=C(Nc1ccccc1-c1nnc(SCc2ccc(Cl)cc2)o1)c1ccccc1,,"inconclusive: 39.8 µM [inhibitor, single point]"
COc1ccc(Cn2c(SCc3ccc(C(=O)NC4CCCCC4)cc3)nc3ccncc32)cc1,inactive: -9.89%,
Brc1ccc(-c2csc3ncnc(-n4nnc5ccccc54)c23)cc1,,"inconclusive: 25.1 µM [inhibitor, single point]"
CC(=O)c1ccc(NC(=O)CSc2ccc(-c3ccc4c(c3)OCO4)nn2)cc1,,"inconclusive: 39.8 µM [inhibitor, single point]"
O=C1c2[nH]nc(-c3ccccc3O)c2C(c2cccc(OCc3ccccc3)c2)N1CCCO (stereo not given),inactive: -14.3%,
COc1ccccc1N1CCN(c2nc3c(S(=O)(=O)c4ccccc4)nnn3c3ccc(Cl)cc23)CC1,,"inconclusive: 25.1 µM [inhibitor, single point]"
N#Cc1nc(-c2ccc(COc3ccc(Cl)cc3)o2)oc1N1CCCCC1,inactive: 2.99%,
COc1ccc(CNS(=O)(=O)c2ccc(C(=O)N(C)C)s2)cc1,inactive: 3.83%,
Cc1ccc(NS(=O)(=O)c2cccc(C(=O)O)c2)c(C)c1,inactive: 1.14%,
CCCCC(=O)Nc1nc(C)c(-c2csc(Nc3cc(Cl)ccc3OC)n2)s1,,active: 10 µM
O=C(CSc1nc2ccc(NC(=O)CSc3nnnn3Cc3ccccc3)cc2s1)Nc1ccccc1,,active: 10 µM
CC(C)=NOc1cc(NC(=O)CCl)cc([N+](=O)[O-])c1,inactive: -6.06%,
Cc1ccccc1CNC(=O)Cn1nc(C)c2nn(-c3ccc(Cl)cc3)c(C)c2c1=O,inactive: -0.644%,

Compound,"max response, negative = inhibition",Potency
COc1cc(C(C)=O)ccc1Oc1ncnc2c1cnn2-c1ccc(F)cc1,,"inconclusive: 39.8 µM [activator, single point]"
COC(=O)c1ccc(C(NC(=O)OCc2ccccc2)/C(C)=C/[C@@H](C)C(=O)NCCN2CCOCC2)cc1 (stereo not given in full),,"inconclusive: 39.8 µM [activator, single point]"
COC(=O)N[C@@H](/C=C/c1ccccc1)[C@@H](C)[N+](=O)[O-],inactive: 5.47%,
COc1ccc(/C=C/C(=O)NCc2c(C)nn(C)c2C)cc1COc1ccc(Br)cc1,,"inconclusive: 25.1 µM [activator, partial curve]"
CCc1ccc(C(c2ccccc2)c2c(C)[nH]c3ccccc23)s1 (stereo not given),inactive: -7.89%,
Cc1cc(C)c(NC(=O)CSc2nc3ccccc3c3nc(-c4ccccc4)nn23)c(C)c1,inactive: -2.61%,
CCn1c(SCC(=O)N2c3ccccc3Sc3ccccc32)nc2c1c(=O)n(C)c(=O)n2C,,"inconclusive: 31.6 µM [activator, single point]"
COC(=O)C1=C(C)N(CCc2ccc(OC)c(OC)c2)C(=O)/C1=C\c1ccc(O)cc1,,"inconclusive: 31.6 µM [activator, single point]"
Cc1nn(C(C)C(=O)NCCc2ccccc2)c(=O)c2c1sc1ccccc12 (stereo not given),,"inconclusive: 39.8 µM [inhibitor, single point]"
Cc1ccccc1Cn1c(CN2CCc3ccccc3C2)nc2c1c(=O)n(C)c(=O)n2C,,"inconclusive: 39.8 µM [activator, single point]"
CCN(Cc1ccccc1)c1nc2c(S(=O)(=O)c3ccccc3)nnn2c2ccc(Cl)cc12,,"inconclusive: 31.6 µM [inhibitor, single point]"
Cc1ccccc1C(=O)Nc1cccc(NC(=O)c2ccc(C(C)(C)C)cc2)c1,inactive: -13.8%,
CCOc1cc(/C=N/NC(=O)c2cccc([N+](=O)[O-])c2)ccc1OS(=O)(=O)c1ccccc1,,"inconclusive: 39.8 µM [inhibitor, single point]"
COc1ccc(Br)c(/C=N/NC(=O)COc2ccc(-c3ccccc3)cc2)c1,,active: 20 µM
CCC(C(=O)NC1CCCCC1)n1c(SCc2ccccc2F)nc2ccncc21 (stereo not given),,"inconclusive: 25.1 µM [inhibitor, partial curve]"
COc1cccc(/C=C(/C#N)c2ccc(F)cc2)c1OCc1cccc(C(=O)O)c1,,"inconclusive: 39.8 µM [inhibitor, single point]"
COCCNC(=O)CN1C(=O)COc2ccc(S(=O)(=O)N3CCCCCC3)cc21,inactive: -5.75%,
COc1ccc(-c2ncccc2O)cc1,,"inconclusive: 39.8 µM [inhibitor, single point]"
CCC(C)NC(=O)CCCn1c(=O)c2cccn2c2ccccc21 (stereo not given),,"inconclusive: 39.8 µM [activator, single point]"
CNC(=O)COc1ccccc1C(=O)Nc1ccc2c(c1)oc1ccccc12,inactive: -21.6%,
COC(=O)[C@@]1(Cc2ccc(OC)cc2)[C@H]2c3cc(C(=O)N4CCCC4)n(Cc4ccc(C(F)(F)F)nc4)c3C[C@H]2CN1C(=O)c1ccccc1,,"inconclusive: 25.1 µM [activator, partial curve]"
